According to PubChem BioAssay AID493208 (National Center for Advancing Translational Sciences (NCATS), 2011):
About 340 (0.77%) of roughly 44,000 compounds were called active. Inconclusive results (about 5%) are left out. The call rests on the fitted dose curve; in most records, active means well fitted inhibition curve with a large enough effect; inconclusive means small, poorly fitted or top-dose-only effect; inactive means flat fitted curve, though single readings scatter. The list shows a part of the results.

test: Acumen qHTS Assay for Inhibitors of the mTORC1 Signaling Pathway in MEF (Tsc2-/-, p53-/-) Cells: Sytravon; settings: phospho-rpS6 immunofluorescence/PI, 24 h; series mostly up to 38.3 µM; activity change, negative = inhibition: at the top concentration;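 further: plate controls were DMSO for no effect and rapamycin for full effect; nearly all actives have a fitted effect of over 50% in size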
Method in brief: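 Tsc2-/-, p53-/- MEFs (empty-vector stable line) in DMEM + 10% FBS were treated with compounds 24 h at 37 degree Celsius, fixed, and immunostained for phospho-rpS6 (Alexa-488) with propidium iodide counterstain. Laser-scanning cytometry gave % positive cells, normalized against 7.5 nM rapamycin and DMSO.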

SMILES	activity change, negative = inhibition
Cc1ccc(NC(=O)CN2C(=O)CCc3cc(S(=O)(=O)N4CCCCC4)ccc32)cc1C	inactive: -9.24%
Cc1ccc(NC(=O)c2cc3c(=O)n(Cc4ccco4)ccc3nc2C)cc1C	inactive: -5.66%
Cc1ccc(CN(C(=O)COc2ccc(Cl)cc2C)C2CCS(=O)(=O)C2)o1 (stereo unspecified)	inactive: -1.94%
CCOC(=O)c1c(NC(=O)c2cc(CC(C)C)on2)sc(C(C)=O)c1C	inactive: -0.217%
CCCn1c(=O)c2c(nc3n2CCN3c2ccc(C)cc2)n(C)c1=O	inactive: 5.93%
CSc1ccc(C2c3c(oc4cc(C)cc(C)c4c3=O)C(=O)N2CCO)cc1 (stereo unspecified)	inactive: 0.0534%
Cc1nc2sc(C(=O)N(C)c3ccccc3)c(NC(=O)c3ccccc3Cl)c2c(C)c1C	inactive: 3.28%
CCOc1ccc(NC(=O)N(Cc2c[nH]c3ccccc23)C2CCCCCC2)cc1	inactive: -9.05%
Cc1ccc(NC(=O)c2c(C)oc3ccc(O)c(CN4CCOCC4)c23)c(C)c1	inactive: 5.23%
COc1ccc(C2C(C(=O)Nc3ccccc3OC)=C(C)Nc3c(C(=O)Nc4ccccc4)cnn32)c(OC)c1 (stereo unspecified)	inactive: 0%
Cc1ccc(OCC(=O)N(Cc2ccco2)Cc2ccco2)cc1C	inactive: 2.72%
CC(C)CCNC(=O)CCn1c(=O)c2cccn2c2cccnc21	inactive: 3.03%
COc1cn(CC(=O)Nc2ccccc2)c(CN2CCCCC2)cc1=O	inactive: 0.489%
CCOc1ccccc1NC(=O)CSc1ncc(S(=O)(=O)c2ccc(C)c(C)c2)c(N)n1	inactive: -6.77%
O=C(CSc1nnc(-c2ccccc2F)o1)Nc1ccccc1Cl	inactive: -3.47%
CCSc1nnc2c(n1)OC(c1ccc(C)s1)Nc1ccccc1-2 (stereo unspecified)	inactive: 3.57%
COc1ccc(CCNC(=O)Cn2cc(S(=O)(=O)Cc3ccccc3Cl)c3ccccc32)cc1OC	inactive: -6.04%
CCOc1ccc(NC(=O)Cn2nnc(C(=O)NCCc3ccccc3)c2N)cc1	inactive: -3.9%
COc1cc(NC(=O)N2CCC3(CC2)Nc2ccccc2-n2cccc23)cc(OC)c1OC	inactive: -15.8%
COc1ccc(-c2cc(OC(=O)c3cccc(Cl)c3)c3c(C)oc(C)c3c(=O)c2)cc1	inactive: 2.61%
CCc1nn(CC(=O)Nc2c(C)cccc2C)c(=O)c2cc3sccc3n12	inactive: -0.491%

SMILES	activity change, negative = inhibition
O=C(CSc1nc2c([nH]c3ccccc32)c(=O)n1-c1ccccc1)Nc1ccc(Cl)c(Cl)c1	inactive: -5.64%
COc1ccc(-c2noc(-c3ccc(NCC4CCCO4)c([N+](=O)[O-])c3)n2)cc1 (stereo unspecified)	inactive: 3.56%
CNC(=O)c1c(NC(=O)Cc2coc3ccc(C)cc23)sc2c1CCCC2	inactive: -19.6%
COc1ccccc1NC(=O)CSc1oc(-c2ccccc2)nc1S(=O)(=O)c1ccc(C)cc1	inactive: 4.75%
CCOC(=O)c1noc2ncn(CC(=O)Nc3cccc(Cl)c3)c(=O)c12	inactive: -4.39%
O=C(CSc1c2c(nc3cc(Cl)ccc13)CCCC2)N1CCN(c2ccccc2F)CC1	inactive: -8.63%
O=C(COc1ccc2ccccc2c1)NC1CC(=O)N(c2ccccc2)C1 (stereo unspecified)	inactive: 0.303%
Cc1ccc2nc(-c3cccnc3)c(Nc3ccc(C(C)C)cc3)n2c1	inactive: -0.939%
Cc1nc(-c2ccc(S(=O)(=O)N3CCN(c4cc(Cl)ccc4C)CC3)cc2)co1	inactive: 0.534%
O=C(c1ccc(F)cc1)n1nc(-c2cccnc2)nc1NCc1ccc(F)cc1	inactive: -1.55%
O=C(NCCc1ccc(Cl)cc1)C1COc2ccccc2C1 (stereo unspecified)	inactive: -4.64%
Cc1cn2c(=O)c(S(=O)(=O)N3CCN(c4cc(Cl)ccc4C)CC3)c(C)nc2s1	inactive: 1.9%
O=C(Nc1cccc(-c2nc3cccnc3s2)c1)c1cccc(Br)c1	inactive: -1.33%
CCOC(=O)c1ccc(NC(=O)c2cn(-c3ccccc3)nc2-c2ccc(OC)c(OC)c2)cc1	inactive: 9.27%
N#Cc1ccccc1NC(=O)C(=O)NCCc1csc(-c2ccc(F)cc2)n1	inactive: -1.01%
Cc1ccc(S(=O)(=O)c2nc(-c3cccs3)oc2SC(C)C)cc1	inactive: -25.7%
O=C(Cn1c(=O)oc2cc(S(=O)(=O)N3CCCC3)ccc21)Nc1ccc(F)cc1F	inactive: -0.855%
CCNC(=O)CC1C(=O)N(c2ccc(C)cc2)C(=O)N1CCC(C)C (stereo unspecified)	inactive: 1.39%
COc1ccc2c(Sc3ccc(Cl)cc3)c(C(=O)N3CCC(C)CC3)[nH]c2c1	inactive: -5.9%
CCOC(=O)c1c(C)oc2nc(C)nc(NCc3cccc(Cl)c3)c12	inactive: 4.01%
O=C(c1cccc(Cl)c1)n1nc(-c2cccnc2)nc1NCc1ccccc1	inactive: 4.86%

SMILES	activity change, negative = inhibition
CCOC(=O)c1nc(Nc2ccc(C(=O)OC)cc2)c2ccccc2n1	inactive: -14.8%
CSCCC(NS(=O)(=O)c1ccc2c(c1)oc(=O)n2C)C(=O)N1CCN(c2ccc(C(C)=O)cc2)CC1 (stereo unspecified)	inactive: 1.18%
COc1cccc(C(=O)NCC(=O)OCc2cc(=O)n3ccsc3n2)c1	inactive: 1.79%
CCc1ccccc1NC(=O)c1ccc(=O)n(Cc2ccc(F)cc2)c1	inactive: 0.211%
CCc1ccc(-n2c(=O)c3cccnc3n2CC(=O)Nc2cc(OC)ccc2OC)cc1	inactive: -0.896%
Cc1ccc(C(=O)Nc2nc(-c3nnn(-c4cccc(C(F)(F)F)c4)c3C)ns2)cc1	inactive: 3%
COc1cc(OC)cc(C(=O)Nc2nnc3n2CCS3)c1	inactive: -14.4%
CC(C)CC(=O)Nc1nnc(SCc2cc(=O)n3ccccc3n2)s1	inactive: 6.18%
Cc1ccc(CCNC(=O)c2cn(C)c3ccc(S(=O)(=O)N4CCC(C)CC4)cc3c2=O)cc1	inactive: 1.03%
Cc1cc(C)c(NC(=O)CCCn2c(C)c3cnn(-c4ccccc4)c(=O)c3c2C)c(C)c1	inactive: -0.486%
COc1cc(OC)cc(-c2nc3nc(C)c(CCC(=O)NCCC(C)C)c(C)n3n2)c1	inactive: -6.42%
CCOC(=O)c1c(S(=O)(=O)NCC(=O)Nc2ccc(F)cc2C)c(C)n(C)c1C	inactive: -8.56%
COc1ccccc1NC(=O)CN1C(=O)CSc2ccc(S(=O)(=O)N3CCCC3)cc21	inactive: -2.64%
CCN(CC)S(=O)(=O)c1ccc2[nH]cc(C(=O)NCCc3ccccc3)c(=O)c2c1	inactive: -1.1%
O=c1c(S(=O)(=O)c2cccc(Cl)c2)cn(Cc2ccccc2)c2cc(N3CCCCC3)c(F)cc12	inactive: -1.39%
CC(=O)C1=C(c2ccc(Br)cc2)N(C(C)=O)n2c(nnc2C2CCCCC2)S1	inactive: -3.79%
CCn1ccc2cc(S(=O)(=O)N3CCC(C(=O)NCCc4ccccc4)CC3)ccc21	inactive: 1.74%
COc1cc(OC)c(NC(=O)c2c(C)oc3nc(C)nc(N4CCOCC4)c23)cc1Cl	inactive: -4.06%
COc1cccc(-n2cc(C(=O)OCc3ccc(Cl)cc3)c3ccccc3c2=O)c1	inactive: -2.37%
